The list shows a part of the results.
These sequences were tested against T1, OsWOX13 (Oryza sativa, UniProt Q5QMM3 1-267) (assay: protein-binding microarray (RPBM); PBS, 2% BSA, 51.3 ng/ul salmon testes DNA, 50 uM zinc acetate, 200 nM TF, 25 C, 1 h; high values mean tight binding). Conditions: protein: recombinant; tags: N-terminal polyhistidine and DsRed monomer fusion (pET32a); label: CyDye5-dUTP incorporated in the synthesized complementary strand; 3' TTTTT single-stranded linker to array surface; dsDNA, one strand shown.
T1 sequence: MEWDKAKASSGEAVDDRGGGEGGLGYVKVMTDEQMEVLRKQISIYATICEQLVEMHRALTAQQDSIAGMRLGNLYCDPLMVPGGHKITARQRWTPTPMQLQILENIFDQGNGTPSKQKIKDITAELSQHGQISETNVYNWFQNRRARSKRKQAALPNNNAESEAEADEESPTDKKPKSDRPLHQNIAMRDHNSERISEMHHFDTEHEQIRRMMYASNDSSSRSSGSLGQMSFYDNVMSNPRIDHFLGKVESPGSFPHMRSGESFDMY
Method in brief: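 Binding signal here means per-feature fluorescence intensity in arbitrary units. The values were read on an Axon 4000B scanner after a custom Agilent array, double-stranded by primer extension with Cy5-dUTP, was incubated with 200 nM protein at 25 °C for 1 h in PBS with 2% BSA, salmon testes DNA and 50 µM zinc acetate, then washed. The proteins were transcription factors with an N-terminal polyhistidine tag and DsRed, expressed in E. coli BL21-CodonPlus and purified on Ni–NTA.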
“AAGATAGATTAATATATGATATATCTTTTCGCAAATATGCCGGAGTCACCTAGTGCAG” was tested, and the binding signal was 32600 fluorescence intensity (a.u.).
“TAATTATACATATTACGACTAATTTGCGAGACGAATCTTTCGGAGTCACCTAGTGCAG” was tested, and the binding signal was 4180 fluorescence intensity (a.u.).
For “TGGTTTGTATTAATTTGTTCATTTCCGATTCAATTTTATTCGGAGTCACCTAGTGCAG”, the binding signal was 4690 fluorescence intensity (a.u.).
In the case of “TATGCTTTGATTGAGCCCCTGGAGAAGAGAGGAACAGAGGCGGAGTCACCTAGTGCAG”, the binding signal is reported as 35400 fluorescence intensity (a.u.).
With “ATTGATGACTAATTGAGATCGATCGATAGATAGTATAAGACGGAGTCACCTAGTGCAG” the binding signal was 11700 fluorescence intensity (a.u.).
For “AACTGTTGATGGGACAGATCCATCCAACAGGTTTGTGCTCCGGAGTCACCTAGTGCAG”, the binding signal was 3860 fluorescence intensity (a.u.).
For “ATATTTTAAAATTTAAATTTTATATAGTTTAATCAAAGTCCGGAGTCACCTAGTGCAG”, the binding signal was 7820 fluorescence intensity (a.u.).
For “TCAATGTATAATTACAATGTAAGTATAAGTAATTTATGGTCGGAGTCACCTAGTGCAG”, the binding signal was 7260 fluorescence intensity (a.u.).
In the case of “TGTAATTACATAATTTATGTTGTTGTGACTTGTTTTATCACGGAGTCACCTAGTGCAG”, the binding signal is reported as 50300 fluorescence intensity (a.u.).
In the case of “AGCAATGATCAAATTAATATTGATGCATATATATCAAGTTCGGAGTCACCTAGTGCAG”, the binding signal is reported as 16300 fluorescence intensity (a.u.).
For “ACCCCACAATCACGTTGGCAAATAGCAGCTGCCCTGGTGCCGGAGTCACCTAGTGCAG”, the binding signal was 6170 fluorescence intensity (a.u.).
With “CAAATTGAGCACAAATATTTTGGTGTTAAGTTAGAAGGATCGGAGTCACCTAGTGCAG” the binding signal was 6570 fluorescence intensity (a.u.).
For “TTAAAATTAACTTTAAAATTTAAATTTAGATTTTAATTTTCGGAGTCACCTAGTGCAG”, the binding signal was 25700 fluorescence intensity (a.u.).
In the case of “TCTAAATTACTGTTTAGTCGATGACTCGATGTAATACATTCGGAGTCACCTAGTGCAG”, the binding signal is reported as 19600 fluorescence intensity (a.u.).
With “GTATAGTCAATTATTGGCTTTAAATCATCTATAATCAATTCGGAGTCACCTAGTGCAG” the binding signal was 24700 fluorescence intensity (a.u.).
“AAATTGATTTGTAGGTCATATACTTCCATTACGAAAATGCCGGAGTCACCTAGTGCAG” was tested, and the binding signal was 32500 fluorescence intensity (a.u.).
With “CATCTTGTAGCGTCGATGTGATTGGACCTGGGTTTGCCGTCGGAGTCACCTAGTGCAG” the binding signal was 4480 fluorescence intensity (a.u.).
In the case of “GTTAATTTGTACCACGTCAGATATAATCTCAGCGTCGATGCGGAGTCACCTAGTGCAG”, the binding signal is reported as 29200 fluorescence intensity (a.u.).
For “ATTATTGAATGATACTATTTCCGTTCGATGACCATACTCTCGGAGTCACCTAGTGCAG”, the binding signal was 9000 fluorescence intensity (a.u.).
“ATAAACCAGTGACTAATTTATTGCCTGCTGCACACGCGCTCGGAGTCACCTAGTGCAG” was tested, and the binding signal was 13200 fluorescence intensity (a.u.).
In the case of “CATATAAGTTACAGTGTAATTACACTACGATTGTACTATACGGAGTCACCTAGTGCAG”, the binding signal is reported as 4420 fluorescence intensity (a.u.).
For “TGAATGTAGAAAGATGATTGAGAGGAAAATAGGGAGAAATCGGAGTCACCTAGTGCAG”, the binding signal was 6790 fluorescence intensity (a.u.).
In the case of “TGATGATTTAACTGTGTTGCATGAATTCATTCCTATTTGACGGAGTCACCTAGTGCAG”, the binding signal is reported as 29500 fluorescence intensity (a.u.).
For “TAAATTGATCCGGTATTTATAGTTGAGGGATCACTAGTACCGGAGTCACCTAGTGCAG”, the binding signal was 11100 fluorescence intensity (a.u.).
With “TTGCAATTAATTGCTATAATGGATTTCAGATTAATTTCTCCGGAGTCACCTAGTGCAG” the binding signal was 51000 fluorescence intensity (a.u.).
In the case of “TTCGGGGATTGAATTTAGGCTATCTGTTGGAGAGAGGGGTCGGAGTCACCTAGTGCAG”, the binding signal is reported as 16200 fluorescence intensity (a.u.).
“GGTGTGATTGCTGAAGGTGATGTCAAGGTATGCAAGATAACGGAGTCACCTAGTGCAG” was tested, and the binding signal was 33900 fluorescence intensity (a.u.).
For “GGACTTATGATTAGCGGCATGACCATACGTGCGCCTATATCGGAGTCACCTAGTGCAG”, the binding signal was 19000 fluorescence intensity (a.u.).
For “CCAGGACATCAATTAAACATGTAACTTATTGTTAAGTTTTCGGAGTCACCTAGTGCAG”, the binding signal was 14900 fluorescence intensity (a.u.).
In the case of “ATAATTGGTTGAAAAGAGAATATTAGTGGAGAAGTTATATCGGAGTCACCTAGTGCAG”, the binding signal is reported as 4660 fluorescence intensity (a.u.).
“GCCCATAATTAAATTTAATTTGCCCATTGGAAGTGCTCAACGGAGTCACCTAGTGCAG” was tested, and the binding signal was 34700 fluorescence intensity (a.u.).
In the case of “TTATTAAGTCTAATTAATCTATCACTAGCAAATGTTTACTCGGAGTCACCTAGTGCAG”, the binding signal is reported as 6610 fluorescence intensity (a.u.).
With “GAGATAACGACCACAATCAATTAAATTCTTGGACAAGGGGCGGAGTCACCTAGTGCAG” the binding signal was 11500 fluorescence intensity (a.u.).
With “GTTATCATGATTTATATTCCCAAGGTTTGACTTAAACATTCGGAGTCACCTAGTGCAG” the binding signal was 11400 fluorescence intensity (a.u.).
In the case of “TAAGTCCATAAATTACATATGTAAATTTAGTGTATTTATACGGAGTCACCTAGTGCAG”, the binding signal is reported as 4200 fluorescence intensity (a.u.).
With “GCCATCATTCTTTACTGTCAAATACCTAAACTGCAGCTAACGGAGTCACCTAGTGCAG” the binding signal was 3820 fluorescence intensity (a.u.).
With “AATGATATAAGATTGAGAATGAGAGGATAATTAGACTTGGCGGAGTCACCTAGTGCAG” the binding signal was 18900 fluorescence intensity (a.u.).
In the case of “AATCGATTGATTGATAGCATATGAAGCTGCATGGGCCTAACGGAGTCACCTAGTGCAG”, the binding signal is reported as 45000 fluorescence intensity (a.u.).
For “AATCATCATTGACACAACCGAAAACGCCACTGAATACGGTCGGAGTCACCTAGTGCAG”, the binding signal was 3420 fluorescence intensity (a.u.).
With “AGCGAAACTGATTGCAAAAGAAGGTAAATCGGCCACTTTACGGAGTCACCTAGTGCAG” the binding signal was 16900 fluorescence intensity (a.u.).
In the case of “CAGCAGATTGCCCATCTCTCGTTGTACTGCCAATCTCTCCCGGAGTCACCTAGTGCAG”, the binding signal is reported as 8270 fluorescence intensity (a.u.).
With “TATGATTAAAATTGTTTTGAACCATTGCACGCACCAGCATCGGAGTCACCTAGTGCAG” the binding signal was 18500 fluorescence intensity (a.u.).

Source: publication PMC7819943, “Rice protein-binding microarrays: a tool to detect cis-acting elements near promoter regions in rice”
